Data published in article PMC8945615 (Blood Advances, 2021).

Target: T1, human fibrinogen (human, UniProt P02671-2 20-644; P02675 31-491; P02679-2 27-437)
T1 sequence (looked up) 1: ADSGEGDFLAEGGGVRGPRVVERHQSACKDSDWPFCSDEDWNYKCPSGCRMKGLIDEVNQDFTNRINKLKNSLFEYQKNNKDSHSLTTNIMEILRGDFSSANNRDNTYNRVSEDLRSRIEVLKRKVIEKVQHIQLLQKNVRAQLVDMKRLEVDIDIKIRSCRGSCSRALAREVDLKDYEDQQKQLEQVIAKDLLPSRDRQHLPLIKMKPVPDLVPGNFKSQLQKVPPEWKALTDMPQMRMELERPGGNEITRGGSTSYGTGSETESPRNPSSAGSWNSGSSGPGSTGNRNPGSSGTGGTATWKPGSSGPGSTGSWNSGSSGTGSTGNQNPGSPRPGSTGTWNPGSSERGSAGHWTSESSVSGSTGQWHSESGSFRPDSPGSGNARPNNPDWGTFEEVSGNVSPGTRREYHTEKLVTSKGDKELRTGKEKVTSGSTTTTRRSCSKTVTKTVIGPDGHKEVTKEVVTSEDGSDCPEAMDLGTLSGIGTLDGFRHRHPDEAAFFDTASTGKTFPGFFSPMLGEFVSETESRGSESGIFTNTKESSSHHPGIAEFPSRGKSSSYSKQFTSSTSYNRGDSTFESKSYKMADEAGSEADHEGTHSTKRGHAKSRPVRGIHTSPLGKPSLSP
T1 sequence (looked up) 2: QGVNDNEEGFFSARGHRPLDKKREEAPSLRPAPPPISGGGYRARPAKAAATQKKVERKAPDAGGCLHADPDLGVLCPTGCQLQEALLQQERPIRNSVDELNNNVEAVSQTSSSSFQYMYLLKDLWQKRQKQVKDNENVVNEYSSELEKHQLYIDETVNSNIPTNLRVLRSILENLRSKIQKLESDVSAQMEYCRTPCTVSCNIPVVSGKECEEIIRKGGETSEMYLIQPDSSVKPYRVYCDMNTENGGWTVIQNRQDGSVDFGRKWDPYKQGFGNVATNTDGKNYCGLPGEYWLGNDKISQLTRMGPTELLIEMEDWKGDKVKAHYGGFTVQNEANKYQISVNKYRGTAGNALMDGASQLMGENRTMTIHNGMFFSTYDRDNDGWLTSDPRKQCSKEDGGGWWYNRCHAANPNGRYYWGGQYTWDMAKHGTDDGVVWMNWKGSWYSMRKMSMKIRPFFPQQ
T1 sequence (looked up) 3: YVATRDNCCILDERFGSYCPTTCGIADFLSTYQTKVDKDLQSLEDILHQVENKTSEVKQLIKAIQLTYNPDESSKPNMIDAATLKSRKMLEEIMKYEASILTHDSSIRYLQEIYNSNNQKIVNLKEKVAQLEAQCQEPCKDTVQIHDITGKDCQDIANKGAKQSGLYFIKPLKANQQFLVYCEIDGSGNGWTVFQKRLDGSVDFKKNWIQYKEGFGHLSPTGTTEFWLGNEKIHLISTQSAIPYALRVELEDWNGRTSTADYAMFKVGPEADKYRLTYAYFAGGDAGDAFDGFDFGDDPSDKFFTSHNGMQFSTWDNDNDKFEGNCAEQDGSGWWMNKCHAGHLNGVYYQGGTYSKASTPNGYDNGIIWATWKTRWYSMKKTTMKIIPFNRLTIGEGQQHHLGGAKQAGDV
Assay: SPR

fold increase of ka1 on priming with PT25-2 (against unprimed αIIbβ3): ~3 fold
B1: full-length, purified αIIbβ3 (receptor)
chain 1: not shown
chain 2: GPNICTTRGVSSCQQCLAVSPMCAWCSDEALPLGSPRCDLKENLLKDNCAPESIEFPVSEARVLEDRPLSDKGSGDSSQVTQVSPQRIALRLRPDDSKNFSIQVRQVEDYPVDIYYLMDLSYSMKDDLWSIQNLGTKLATQMRKLTSNLRIGFGAFVDKPVSPYMYISPPEALENPCYDMKTTCLPMFGYKHVLTLTDQVTRFNEEVKKQSVSRNRDAPEGGFDAIMQATVCDEKIGWRNDASHLLVFTTDAKTHIALDGRLAGIVQPNDGQCHVGSDNHYSASTTMDYPSLGLMTEKLSQKNINLIFAVTENVVNLYQNYSELIPGTTVGVLSMDSSNVLQLIVDAYGKIRSKVELEVRDLPEELSLSFNATCLNNEVIPGLKSCMGLKIGDTVSFSIEAKVRGCPQEKEKSFTIKPVGFKDSLIVQVTFDCDCACQAQAEPNSHRCNNGNGTFECGVCRCGPGWLGSQCECSEEDYRPSQQDECSPREGQPVCSQRGECLCGQCVCHSSDFGKITGKYCECDDFSCVRYKGEMCSGHGQCSCGDCLCDSDWTGYYCNCTTRTDTCMSSNGLLCSGRGKCECGSCVCIQPGSYGDTCEKCPTCPDACTFKKECVECKKFDRGALHDENTCNRYCRDEIESVKELKDTGKDAVNCTYKNEDDCVVRFQYYEDSSGKSILYVVEEPECPKGPDILVVLLSVMGAILLIGLAALLIWKLLITIHDRKEFAKFEEERARAKWDTANNPLYKEATSTFTNITYRGT
